According to PMC4336329 (PLoS ONE, 2015):
Screen size: about 310,000 compounds; about 2,200 (0.71%) showed an effect of 50% or more. The effect is printed as a negative number. The list shows a part of the results.

biological target: human ether-à-go-go-related gene (hERG) potassium channel (human, UniProt Q12809); assay: primary screen, population patch clamp on CHO cells stably expressing hERG
Sequence (Q12809 whole entry, looked up): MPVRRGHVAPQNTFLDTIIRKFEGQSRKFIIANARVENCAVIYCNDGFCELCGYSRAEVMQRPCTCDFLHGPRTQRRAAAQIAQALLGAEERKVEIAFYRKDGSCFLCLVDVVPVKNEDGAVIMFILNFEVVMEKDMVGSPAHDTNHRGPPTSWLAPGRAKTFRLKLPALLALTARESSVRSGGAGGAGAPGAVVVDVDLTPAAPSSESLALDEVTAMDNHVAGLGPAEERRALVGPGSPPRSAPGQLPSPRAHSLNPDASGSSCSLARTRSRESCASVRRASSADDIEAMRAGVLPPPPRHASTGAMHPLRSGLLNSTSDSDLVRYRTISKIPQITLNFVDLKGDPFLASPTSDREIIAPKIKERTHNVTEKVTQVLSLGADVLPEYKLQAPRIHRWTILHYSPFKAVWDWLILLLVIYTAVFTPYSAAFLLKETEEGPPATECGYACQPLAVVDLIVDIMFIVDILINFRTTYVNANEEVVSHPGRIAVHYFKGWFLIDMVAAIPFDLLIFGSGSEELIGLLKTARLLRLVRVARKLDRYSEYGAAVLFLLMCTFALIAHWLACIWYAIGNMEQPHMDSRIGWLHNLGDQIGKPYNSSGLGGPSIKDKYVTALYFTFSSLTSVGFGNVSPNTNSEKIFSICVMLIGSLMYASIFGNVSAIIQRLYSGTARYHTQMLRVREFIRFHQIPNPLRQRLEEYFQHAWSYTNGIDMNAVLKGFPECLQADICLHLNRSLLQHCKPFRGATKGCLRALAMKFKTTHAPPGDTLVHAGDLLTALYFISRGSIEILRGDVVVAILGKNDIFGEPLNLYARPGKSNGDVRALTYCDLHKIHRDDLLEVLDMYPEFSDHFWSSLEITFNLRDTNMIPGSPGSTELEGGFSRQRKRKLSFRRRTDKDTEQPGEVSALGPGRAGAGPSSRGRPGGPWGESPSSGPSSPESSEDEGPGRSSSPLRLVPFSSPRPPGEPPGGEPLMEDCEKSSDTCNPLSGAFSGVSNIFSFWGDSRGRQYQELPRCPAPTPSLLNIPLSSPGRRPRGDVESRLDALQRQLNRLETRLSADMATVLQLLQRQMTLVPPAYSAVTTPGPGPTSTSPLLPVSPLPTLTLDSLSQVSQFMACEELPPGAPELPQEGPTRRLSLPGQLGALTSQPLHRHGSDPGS

Row | Compound | hERG current change (%, negative = inhibition) at 1uM [%]
1 | CC1Cc2ccccc2N1C(=O)CSc1nc2c(c(=O)n(C)c(=O)n2C)n1Cc1ccccc1 (stereo not shown) | -6.98
2 | CCC(=O)Nc1ccc(C(=O)Nc2ccc(OC)cc2[N+](=O)[O-])cc1 | 7.65
3 | CCOCC(=O)Nc1cc(C)on1 | -8.39
4 | NC1=NC(=O)CC(C(=O)NCCc2ccccc2)S1 (stereo not shown) | 16.3
5 | CCOC(=O)C1=C(C)N(CCCC(=O)O)C(=O)NC1c1ccc(Cl)cc1 (stereo not shown) | 21.1
6 | Cc1cc(C(F)(F)F)n2nc(C(=O)O)c(Cl)c2n1 | 6.65
7 | Cn1c(C(=O)O)c(CC(=O)NCC2COc3ccccc3O2)c2ccccc21 (stereo not shown) | 8.01
8 | Cc1cc(-c2nc3cccnc3s2)ccc1NS(=O)(=O)c1ccc2c(c1)OCCO2 | 12
9 | Nc1ccccc1C(=O)/C=C/c1ccc2c(c1)OCO2 | 16.6
10 | COc1ccc(-c2cc(C(=O)NCC(c3ccccc3)N(C)C)c3ccccc3n2)cc1OC (stereo not shown) | -3.42
11 | CN(C)C(=O)c1ccc(-c2cc(C(F)(F)F)nn2C)s1 | 6.88
12 | NC(=O)CNC1CC(=O)N(CCc2ccccc2)C1=O (stereo not shown) | 8
13 | COc1cc(/C=N/Nc2nncc3ccccc23)cc(OC)c1OC | 6.92
14 | CCSc1nc2ccccc2[nH]1 | -0.69
15 | CCOC(=O)C1=NN(c2ccc(OC)cc2)C2C(=O)N(c3ccccc3OC)C(=O)C12 (stereo not shown) | 11.8
16 | CCN(CC)S(=O)(=O)c1ccc(Cl)c(NC(=O)COc2ccc3c(C)cc(=O)oc3c2)c1 | 6.68
17 | O=C(Cn1nnc(-c2ccc(CN3CCOCC3)cc2)n1)N(c1ccccc1)c1ccccc1 | 6.69
18 | COc1ccc(N2C(=O)NC(NS(=O)(=O)c3ccc(Cl)cc3)(C(F)(F)F)C2=O)cc1 (stereo not shown) | -3.67
19 | O=C(Nc1nc(-c2ccc(-c3ccccc3)cc2)cs1)C1CCCO1 (stereo not shown) | 1.63
20 | CC(=O)c1c(C)nc(-c2ccccc2)n1O | 4.71
21 | O=C1N=C(C=c2ccc(=Cc3[nH]c(=O)[nH]c3O)cc2)C(=O)N1 | 16.5
22 | O=C(NC(=S)Nc1ccccc1F)C1CCCCC1 | 15.7

Row | Compound | hERG current change (%, negative = inhibition) at 1uM [%]
23 | CCOc1ccc2nc(NC(=S)N(C)C)sc2c1 | 15.7
24 | O=C(CSc1nc2ccccc2c(=O)n1-c1ccc(F)cc1)Nc1cc(S(=O)(=O)N2CCOCC2)ccc1Cl | 8.93
25 | O=C(c1ccc2nc3ccccc3c(=O)n2c1)N1CCN(Cc2ccc3c(c2)OCO3)CC1 | -12.2
26 | COC(=O)c1ccccc1NC(=O)C1CC(c2ccc(F)cc2)=NO1 (stereo not shown) | -9.68
27 | O=C(CCC1CCCN(c2ncccn2)C1)NCc1ccc(F)c(F)c1 (stereo not shown) | -11.6
28 | O=C(CSc1ccc2nnc(-c3ccccn3)n2n1)Nc1ccc(F)cc1 | -1.22
29 | O=C(CSc1ccccn1)N1CCN(c2ccccc2)CC1 | 6.49
30 | CN(Cc1ccccn1)C(=O)c1ccc2nc(Cc3cccc(Cl)c3)oc2c1 | -1.56
31 | CCCCn1c(SCC(=O)Nc2ccc3c(c2)OCCO3)nnc1C(CC)N(C)C (stereo not shown) | 16.8
32 | CC1CCN(C(=O)CCCNC(=O)Cn2cnc3sc4c(c3c2=O)CCCC4)CC1 | -0.87
33 | CN1C(=O)C(=O)N(CC(=O)Nc2ccccc2OC(F)F)C1=O | 17.4
34 | Cl.c1ccc(C(c2nnnn2Cc2ccco2)N2CCN(C3CCCC3)CC2)cc1 (stereo not shown) | -9.06
35 | CCCCOC1(c2ccccc2)OC(=O)c2ccccc21 (stereo not shown) | -4.19
36 | CC(=O)c1c(-c2ccccc2)c2cc([N+](=O)[O-])ccc2[nH]c1=O | 2.78
37 | CCOc1ccc(S(=O)(=O)Nc2cccc(C(=O)NCC(C)(C)N3CCOCC3)c2)cc1 | -11.7
38 | COc1ccc(C(=O)/C=C(/C)N(C)C)cc1 | -16.6
39 | CCn1c(SCC(=O)Nc2ccc(Br)cc2)nc2sc3c(c2c1=O)CCN(C)C3 | 20
40 | COC(=O)c1c(NC(=O)CSc2nncs2)sc2c1CCCCC2 | 6.92
41 | Cc1csc2ncc(C(=O)NCc3ccccn3)c(=O)n12 | 10.9
42 | Cl.Fc1ccc(C(c2nnnn2C2CCCCC2)N2CCCC2)cc1 (stereo not shown) | 7.37
43 | CCOC(=O)C1(CC2CC2)CCN(C(=O)c2cc(C3CC3)nc3ccccc23)CC1 | 12.2
44 | COc1ccc2cc(/C=C/C(=O)N3CCN(CC(=O)N4CCCCCC4)CC3)ccc2c1 | 2.57

Row | Compound | hERG current change (%, negative = inhibition) at 1uM [%]
45 | O=C(O)c1ccc(-n2c(/C=C/c3cccc([N+](=O)[O-])c3)nc3ccccc3c2=O)cc1 | 11.7
46 | Cc1ccc(S(=O)(=O)N(CC(=O)N2CCC(C(N)=O)CC2)Cc2ccc(F)cc2)cc1 | -0.354
47 | O=C(CSc1nc2ncccc2[nH]1)NC1CCCC1 | 7.24
48 | Cc1ccccc1CS(=O)(=O)c1cn(CC(=O)N2CCC(C)CC2)c2ccccc12 | 2.72
49 | O=[N+]([O-])c1ccc(/C=N/Nc2nc(N3CCCCC3)nc(N3CCCCC3)n2)cc1 | 10.4
50 | COc1ccc(NC(=O)CNS(=O)(=O)c2ccc(Cl)cc2)cc1 | 14.2
51 | COc1ccc(CCNC(=O)CCc2nc3ccccc3[nH]2)cc1OC | 3.1
52 | CCSc1nc(O)c(CC)c(=O)n1C(C)CC (stereo not shown) | -9.36
53 | CSCCC(NS(=O)(=O)c1cccc(C(F)(F)F)c1)C(=O)Nc1ccccc1N1CCCC1 (stereo not shown) | 5.71
54 | CN(C(=O)CSc1nnc(-c2ccccc2)o1)c1c(N)n(Cc2ccccc2)c(=O)[nH]c1=O | 13
55 | Cc1cc(C(=O)C(=O)N(C)C)c(C)n1-c1ccc([N+](=O)[O-])cc1 | -8.01
56 | COCc1ccc(C(=O)N2CCCC(N3CCN(c4ccccc4C)CC3)C2)s1 (stereo not shown) | 0.695
57 | COc1cc(/C(C)=N/NC(=O)CSc2nncn2C)ccc1OCc1ccccc1Cl | -0.742
58 | Cc1ccc(NC(=O)CN(C)C(=O)Cn2nnc(-c3ccccc3)n2)cc1 | 0.272
59 | COc1ccc(N/C=C(\[N+](=O)[O-])S(=O)(=O)c2ccccc2)cc1 | 14.7
60 | Cl.O=C(NC1CCN(Cc2ccccc2)CC1)c1cc(-c2ccccn2)nc2ccccc12 | -30.9
61 | Cc1oc(-c2ccc(Cl)cc2)nc1CN1CCCC(C(=O)NCCCN2CCCC2=O)C1 (stereo not shown) | -8.71
62 | COc1ccc(-c2nnc(SCC(=O)NCCc3ccccc3)o2)cc1 | 7.65
63 | CCCNC(=S)Nc1ccc(Oc2ccccc2)cc1 | 3.29
64 | Cc1cnnc2c1-c1no[n+]([O-])c1CC2 | 3.62
65 | COc1ccc(COc2ccc3ccc(=O)oc3c2)cc1 | 11.2
66 | CCOc1ccc(C)cc1S(=O)(=O)n1cnc2ccccc21 | 7.91

Row | Compound | hERG current change (%, negative = inhibition) at 1uM [%]
67 | O=C(/C=C/N1CCN(Cc2ccccc2)CC1)C(F)(F)F | 11.1
68 | Cc1cc(C)n(-c2ccc(NC(=O)C3CCCCN3C(=O)c3ccoc3C)cc2)n1 (stereo not shown) | 12.4
69 | O=C(Cc1cn2ccsc2n1)NCc1ccccc1 | 1.61
70 | CCNC(=O)COC(=O)c1cc(S(=O)(=O)N2CCCc3ccccc32)ccc1Cl | 11.2
71 | CC(=O)/C(C=Nc1noc(C)c1Br)=C(\C)O | 12.5
72 | Cc1ccc(C(C)NC(=O)c2c(C)noc2C)cc1C (stereo not shown) | 7.57
73 | Cn1cccc1Cc1nnc(SCC(=O)Nc2ccc(Cl)cc2)n1-c1ccc(F)cc1 | -10.5
74 | COc1cc(Br)cc2cc(C(=O)NCC3CCCO3)c(=O)oc12 (stereo not shown) | 0.878
75 | CCN(CC)c1ccc(/C=N/Nc2nc(C)cc(C)n2)c(O)c1 | 4.66
76 | COc1cccc(C(=O)Nc2cccnc2)c1 | 11.2
77 | O=C(COc1ccc2ccccc2c1)N1CCN(Cc2ccncc2)CC1.O=C(O)C(=O)O | -14.8
78 | CC(C)N1CCN(Cc2cccc(-c3ccco3)c2)CC1CCO (stereo not shown) | -8.05
79 | OC1CCCCC1 | 14.6
80 | CSc1ncc(Cl)c(C(=O)Nc2ccccc2[N+](=O)[O-])n1 | 16.5
81 | Cc1cc(C(=O)OCC(=O)Nc2ccc(F)cc2)c(C)n1C1CC1 | 11.5
82 | Cc1ccc2c(CC(=O)N3CCN(c4ccccc4)CC3)coc2c1 | 9.82
83 | COc1ccccc1OCC(=O)NCCSCc1cccc(Cl)c1 | 10.4
84 | Cc1ccc(S(=O)(=O)c2nc(-c3ccccc3F)oc2N2CC(C)OC(C)C2)cc1 (stereo not shown) | 9.16
85 | COc1ccccc1CNC(=O)C1CCCN(S(=O)(=O)c2cccc3cccnc23)C1 (stereo not shown) | 0.692
86 | O=C(CSc1nc2c([nH]c3ccccc32)c(=O)n1-c1ccccc1F)NCC1CCCO1 (stereo not shown) | 5.63
87 | Cc1nn(-c2ccccc2)c(C)c1/C=N/NC(=O)c1cc(-c2cccc3ccccc23)n[nH]1 | 8.11
88 | Cc1nn(C2CCS(=O)(=O)C2)c(Cl)c1/C=C/C(=O)OCC(N)=O (stereo not shown) | 7
